{
  "source": "paper PMC4336329",
  "about": "(PLoS ONE, 2015)",
  "note": "Among all 310,000 compounds or so, about 2,200 (0.71%) showed an effect of 50% or more. Effects have a minus sign here. This is one part of the list.",
  "data": [
    {"molecular_target": "human ether-à-go-go-related gene (hERG) potassium channel (human, UniProt Q12809)", "sequence (Q12809 whole entry, looked up)": "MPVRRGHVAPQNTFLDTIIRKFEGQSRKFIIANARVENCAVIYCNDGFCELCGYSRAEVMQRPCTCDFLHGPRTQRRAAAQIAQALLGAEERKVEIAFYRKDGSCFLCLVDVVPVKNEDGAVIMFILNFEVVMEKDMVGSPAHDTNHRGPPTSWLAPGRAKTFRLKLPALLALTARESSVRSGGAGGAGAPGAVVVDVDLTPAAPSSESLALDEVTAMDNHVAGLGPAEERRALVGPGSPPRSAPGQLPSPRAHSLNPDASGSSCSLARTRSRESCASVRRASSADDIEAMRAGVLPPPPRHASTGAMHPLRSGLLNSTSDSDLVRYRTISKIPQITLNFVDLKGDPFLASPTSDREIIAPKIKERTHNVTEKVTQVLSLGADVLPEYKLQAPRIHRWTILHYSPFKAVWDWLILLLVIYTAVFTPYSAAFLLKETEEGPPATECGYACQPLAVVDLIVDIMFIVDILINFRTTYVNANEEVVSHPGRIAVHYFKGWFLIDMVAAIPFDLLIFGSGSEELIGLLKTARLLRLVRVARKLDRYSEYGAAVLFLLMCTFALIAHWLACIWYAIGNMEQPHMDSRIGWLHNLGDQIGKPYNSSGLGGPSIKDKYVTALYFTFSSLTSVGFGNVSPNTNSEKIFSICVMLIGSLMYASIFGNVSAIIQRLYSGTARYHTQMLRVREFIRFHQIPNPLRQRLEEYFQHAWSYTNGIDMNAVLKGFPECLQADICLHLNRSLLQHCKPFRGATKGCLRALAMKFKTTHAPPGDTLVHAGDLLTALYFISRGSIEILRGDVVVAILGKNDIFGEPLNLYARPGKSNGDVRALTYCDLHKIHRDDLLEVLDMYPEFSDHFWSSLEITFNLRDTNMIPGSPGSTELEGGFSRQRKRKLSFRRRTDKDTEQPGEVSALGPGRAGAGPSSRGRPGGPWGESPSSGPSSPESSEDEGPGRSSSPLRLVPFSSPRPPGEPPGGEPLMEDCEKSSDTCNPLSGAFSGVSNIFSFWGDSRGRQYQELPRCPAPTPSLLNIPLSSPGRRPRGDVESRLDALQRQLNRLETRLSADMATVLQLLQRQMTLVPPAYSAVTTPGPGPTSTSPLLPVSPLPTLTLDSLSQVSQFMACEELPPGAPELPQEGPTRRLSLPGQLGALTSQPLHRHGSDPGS", "assay": "primary screen, population patch clamp on CHO cells stably expressing hERG", "units": {"hERG current change (%, negative = inhibition) at 1uM": "%"}, "values": [
      {"smiles": "CCOc1ccc(OCCOC(=O)CN2C(=O)NC3(CCCC3)C2=O)cc1", "hERG current change (%, negative = inhibition) at 1uM": 11.8},
      {"smiles": "NC(=O)c1cccc2c1C(=O)N(C1CCCCC1)C2", "hERG current change (%, negative = inhibition) at 1uM": 15.1},
      {"smiles": "COCC(C)NC(=O)CSc1nc2ccccc2n1CCc1ccccc1", "note": "(stereo not shown)", "hERG current change (%, negative = inhibition) at 1uM": 15.1},
      {"smiles": "O=S(=O)(NC1CCC(NS(=O)(=O)c2c(F)cccc2F)CC1)c1ccc2c(c1)OCCO2", "note": "(stereo not shown)", "hERG current change (%, negative = inhibition) at 1uM": 10.7},
      {"smiles": "Cc1nc(N/N=C/c2ccc(O)cc2)c2cnn(-c3ccccc3)c2n1", "hERG current change (%, negative = inhibition) at 1uM": 8.16},
      {"smiles": "Cc1ccc(C2=NS(=O)(=O)N(C)C(C(=O)N(C)C3CCCCC3)=C2)cc1", "hERG current change (%, negative = inhibition) at 1uM": -27.5},
      {"smiles": "COc1ccccc1OCCNC(=O)c1ccc(C(C)(C)C)cc1", "hERG current change (%, negative = inhibition) at 1uM": 3.25},
      {"smiles": "O=C(Cc1ccccc1)Nc1nc(-c2cccs2)cs1", "hERG current change (%, negative = inhibition) at 1uM": 0.286},
      {"smiles": "Cc1ccc(N(CC(=O)N/N=C/c2cc(C)n(-c3ccccc3C)c2C)S(C)(=O)=O)cc1", "hERG current change (%, negative = inhibition) at 1uM": 1.68},
      {"smiles": "OC1C=CSc2nc3ccccc3n21", "note": "(stereo not shown)", "hERG current change (%, negative = inhibition) at 1uM": 7.81},
      {"smiles": "O=C(Nc1ccc(Cc2ccncc2)cc1)c1ccc(S(=O)(=O)N2CCOCC2)cc1", "hERG current change (%, negative = inhibition) at 1uM": 7.8},
      {"smiles": "COc1ccc(C2=NOC(C(=O)Nc3cccc(O)c3)C2)cc1", "note": "(stereo not shown)", "hERG current change (%, negative = inhibition) at 1uM": 7.2},
      {"smiles": "CCC(=O)C1=C(N2CCCC2)CC(C)(C)CC1=O", "hERG current change (%, negative = inhibition) at 1uM": 10.8},
      {"smiles": "CCOc1ccccc1NC(=O)NCCCCc1ccccc1", "hERG current change (%, negative = inhibition) at 1uM": 7.23},
      {"smiles": "C/C(=N\\Nc1nncc2ccccc12)c1cccc(OC(F)F)c1", "hERG current change (%, negative = inhibition) at 1uM": 15},
      {"smiles": "CCC(=O)Nc1ccc(-c2nnc(SCC(=O)Nc3nccs3)n2C)cc1", "hERG current change (%, negative = inhibition) at 1uM": 4.84},
      {"smiles": "COc1ccc(OC)c(S(=O)(=O)Nc2cccc(-c3ccc4nncn4n3)c2)c1", "hERG current change (%, negative = inhibition) at 1uM": 11.5},
      {"smiles": "O=C(NNS(=O)(=O)c1ccc(F)cc1F)c1csc(-c2cccnc2)n1", "hERG current change (%, negative = inhibition) at 1uM": 15.6},
      {"smiles": "Cc1nc2ccc(NS(=O)(=O)c3ccc(F)cc3)cc2s1", "hERG current change (%, negative = inhibition) at 1uM": 15.1},
      {"smiles": "Cc1cccc(C)c1N(CC(=O)NCc1ccccc1)C(=O)c1csnn1", "hERG current change (%, negative = inhibition) at 1uM": 10.1},
      {"smiles": "CC(C)(C)NC(=S)NCc1ccco1", "hERG current change (%, negative = inhibition) at 1uM": 10.7},
      {"smiles": "Cc1cccc(-n2c(CCc3ccccc3)nnc2SCC(=O)c2ccccc2)c1", "hERG current change (%, negative = inhibition) at 1uM": -1.14},
      {"smiles": "Nc1nc(COc2ccccc2)cs1", "hERG current change (%, negative = inhibition) at 1uM": 5.04},
      {"smiles": "Cc1ccc(NC(=O)C2CCCCC2C(=O)O)cc1C", "note": "(stereo not shown)", "hERG current change (%, negative = inhibition) at 1uM": 1.63},
      {"smiles": "CCOc1cc(/C=C/C(=O)OCC(=O)NCCN2C(=O)CSC2=O)ccc1OCC(C)C", "hERG current change (%, negative = inhibition) at 1uM": 9.05},
      {"smiles": "CCOc1cccc(-c2c(C(=O)N/N=C(\\C)c3ccncc3)nnn2-c2nonc2N)c1", "hERG current change (%, negative = inhibition) at 1uM": -4.95},
      {"smiles": "CCOC(=O)c1cc(-c2ccc(OC(F)F)cc2)nc2nc(SC)[nH]c(=O)c12", "hERG current change (%, negative = inhibition) at 1uM": -7.54},
      {"smiles": "CC1CC(=O)N(CC(=O)NC2CCCCC2)c2ccccc2S1", "note": "(stereo not shown)", "hERG current change (%, negative = inhibition) at 1uM": 9.37},
      {"smiles": "Cc1ccc(C)c(OCCn2c(=O)c3c(ncn3C3CCCC3)n(Cc3ccccc3)c2=O)c1", "hERG current change (%, negative = inhibition) at 1uM": 1.19},
      {"smiles": "c1ccc(-c2cc(-c3ccccc3)ncn2)cc1", "hERG current change (%, negative = inhibition) at 1uM": 1.75},
      {"smiles": "CCOC(=O)c1sc(C)c2c(=O)n(Cc3ccc(Cl)cc3)cnc12", "hERG current change (%, negative = inhibition) at 1uM": 7.44},
      {"smiles": "N#CC(C#N)=C1C=C2C=C(N3CCCCC3)CCC2CC1", "note": "(stereo not shown)", "hERG current change (%, negative = inhibition) at 1uM": 2.79},
      {"smiles": "COc1ccccc1CCNC(=O)C1CCN(C(=O)/C=C/c2ccccc2)CC1", "hERG current change (%, negative = inhibition) at 1uM": 12.7},
      {"smiles": "COC(=O)CCNc1ccc2c(c1)OCCO2", "hERG current change (%, negative = inhibition) at 1uM": 8.01},
      {"smiles": "CCOC(=O)CCc1c(C)c(C#N)c2nc3ccccc3n2c1-n1cnc2ccccc21", "hERG current change (%, negative = inhibition) at 1uM": 8.48},
      {"smiles": "CN1CCN(c2ccc(C(F)(F)F)cc2NC(=O)c2ccco2)CC1", "hERG current change (%, negative = inhibition) at 1uM": -30.8},
      {"smiles": "C/C(=N\\NC(=O)c1ccc(Cl)cc1)c1cccnc1", "hERG current change (%, negative = inhibition) at 1uM": 7.47},
      {"smiles": "CCC(C)N(C(=O)COc1ccccc1C(=O)NCc1ccccc1)C1CCS(=O)(=O)C1", "note": "(stereo not shown)", "hERG current change (%, negative = inhibition) at 1uM": -12.3},
      {"smiles": "CCOC(=O)N1CCN(C(=O)c2cc3c(ccc4ccccc43)oc2=O)CC1", "hERG current change (%, negative = inhibition) at 1uM": 15.4},
      {"smiles": "COc1ccc(OC)c(CN2CCN(C(=O)CCNC(=O)c3ccc(Br)cc3)CC2)c1", "hERG current change (%, negative = inhibition) at 1uM": -1.18},
      {"smiles": "Cc1c(O)c2ccccc2n(-c2ccccc2)c1=O", "hERG current change (%, negative = inhibition) at 1uM": 14},
      {"smiles": "O=C(NNS(=O)(=O)c1ccc(Br)cc1)c1ccncc1", "hERG current change (%, negative = inhibition) at 1uM": 8.67},
      {"smiles": "O=c1c2c3nc4ccccc4nc3n(/N=C/c3ccco3)c2ncn1CCC1=CCCCC1", "hERG current change (%, negative = inhibition) at 1uM": 0.651},
      {"smiles": "Cc1ccc(S(=O)(=O)N(C)c2ccccc2C(=O)Nc2c(F)cccc2F)cc1", "hERG current change (%, negative = inhibition) at 1uM": 14.5},
      {"smiles": "O=C1c2ccccc2C(=O)c2c1cccc2N1CCN(Cc2ccccc2)CC1", "hERG current change (%, negative = inhibition) at 1uM": -6.21},
      {"smiles": "CC1(C)CC(=O)C2=C(C1)N(Cc1ccco1)C(=O)C2(O)C(F)(F)F", "note": "(stereo not shown)", "hERG current change (%, negative = inhibition) at 1uM": 10.7},
      {"smiles": "C/C=C1\\COC(C(=O)NCCCN2CCCC2=O)(C(F)(F)F)C=C1C=C(C)C", "note": "(stereo not shown)", "hERG current change (%, negative = inhibition) at 1uM": 9.8},
      {"smiles": "COc1ccc(CCNC(=O)c2cc(-c3cc(C)cc(C)c3O)n[nH]2)cc1OC", "hERG current change (%, negative = inhibition) at 1uM": -1.05},
      {"smiles": "CC(=O)OC1N=C(c2ccccc2)c2cc(Br)ccc2NC1=O", "note": "(stereo not shown)", "hERG current change (%, negative = inhibition) at 1uM": 4.39},
      {"smiles": "CC(NC(=O)CNC(=O)c1ccc2c(c1)OCO2)c1ccc(S(N)(=O)=O)cc1", "note": "(stereo not shown)", "hERG current change (%, negative = inhibition) at 1uM": 2.65},
      {"smiles": "C=CCn1c(SCC(=O)NCCC2=CCCCC2)nc2ccc(Cl)cc2c1=O", "hERG current change (%, negative = inhibition) at 1uM": 10.9},
      {"smiles": "COc1ccc(Oc2cc(C)c3ccccc3n2)cc1", "hERG current change (%, negative = inhibition) at 1uM": 12},
      {"smiles": "NC(=O)C1CCC(NC(=O)OCc2ccccc2)CC1", "note": "(stereo not shown)", "hERG current change (%, negative = inhibition) at 1uM": 9.33},
      {"smiles": "Cc1ccccc1NC(=O)Cc1cccc(C(F)(F)F)c1", "hERG current change (%, negative = inhibition) at 1uM": 0.808},
      {"smiles": "CCNC(=S)N/N=C/c1ccc(C#N)cc1", "hERG current change (%, negative = inhibition) at 1uM": 6.88},
      {"smiles": "COCCN1CC(CNC(=O)c2cc(COc3ccc(C)c(C)c3)on2)CC1=O", "note": "(stereo not shown)", "hERG current change (%, negative = inhibition) at 1uM": 2.19},
      {"smiles": "CCN(CC(=O)Nc1ccc(NC(C)=O)cc1)C(=O)c1oc2ccccc2c1C", "hERG current change (%, negative = inhibition) at 1uM": 0.233},
      {"smiles": "Cc1cccc(C(=O)NCC(=O)NCC(c2ccco2)N2CCCCC2)c1", "note": "(stereo not shown)", "hERG current change (%, negative = inhibition) at 1uM": 8.09}
    ]}
  ]
}
